From PubChem BioAssay AID360 (National Center for Advancing Translational Sciences (NCATS), 2006)
In all, about 48,000 compounds went through this assay and about 550 (1.1%) were called active. About 4% were inconclusive and are not listed. Rule as the data show it: active = potency below about 15 µM; inconclusive = mostly about 16 µM to 33 µM; inactive = weaker than that. Some of the results follow.

target: Lysosomal acid glucosylceramidase (Homo sapiens) (UniProt P04062); test: Glucocerebrosidase; details: purified enzyme, resorufin glucoside fluorescence (screen aimed at inhibitors), 20 min;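 also: the screen sought inhibitors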
Outline: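 Wild-type enzyme at 0.2 nM final in 50mM citric acid/KH2PO4, 10mM sodium taurocholate, 0.01% tween-20, pH 5.9, with resorufin beta-D-glucopyranoside at 30 uM final. Compounds titrated, 20 min at RT, red fluorescence read; AC50 from titration.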
Potency is read from the fitted curve at half-maximal effect.

Chain of UniProt P04062 (P04062 whole entry, looked up): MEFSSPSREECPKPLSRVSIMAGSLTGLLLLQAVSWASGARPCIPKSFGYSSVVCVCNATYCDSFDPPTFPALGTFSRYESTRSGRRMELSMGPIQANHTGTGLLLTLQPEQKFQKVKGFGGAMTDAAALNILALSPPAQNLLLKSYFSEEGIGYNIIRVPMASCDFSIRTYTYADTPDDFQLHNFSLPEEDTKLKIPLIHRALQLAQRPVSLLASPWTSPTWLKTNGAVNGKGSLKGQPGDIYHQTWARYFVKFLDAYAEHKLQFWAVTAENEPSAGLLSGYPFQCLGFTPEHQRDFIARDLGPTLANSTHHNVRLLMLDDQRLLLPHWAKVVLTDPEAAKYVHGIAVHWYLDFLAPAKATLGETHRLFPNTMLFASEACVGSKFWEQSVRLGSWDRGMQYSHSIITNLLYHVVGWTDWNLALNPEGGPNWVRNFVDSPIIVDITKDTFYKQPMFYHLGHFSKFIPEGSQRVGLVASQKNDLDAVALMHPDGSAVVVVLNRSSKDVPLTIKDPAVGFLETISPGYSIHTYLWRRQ

Potency, inactive:
Cn1c(=O)c2c(nc(SCC(=O)Nc3ccccc3N3CCCCC3)n2C)n(C)c1=O > 76.9 µM, CC1(C)CC(=O)C2=C(C1)Nc1ccccc1N=C2 > 76.9 µM, CCOc1ccc(OCC)c(NC(=O)CN(c2ccc(C)cc2)S(=O)(=O)c2c(C)noc2C)c1 > 76.9 µM, Cc1csc(SCC(=O)NCc2cccs2)n1 > 76.9 µM, CC(=O)Nc1ccc(S(=O)(=O)NCCc2ccccc2)cc1 > 76.9 µM, COC(=O)c1ccccc1NC(=O)N1CSC[C@H]1C(=O)OC > 76.9 µM, Cc1ccc(CN(CC2CCCO2)C(=O)CN2C(=O)C(C(C)C)Oc3ccccc32)o1 (stereo not given) > 76.9 µM, CCOC(=O)N1CCN(C(=O)c2oc3ccc(S(=O)(=O)N4CCCCCC4)cc3c2C)CC1 > 76.9 µM, O=C(Nc1ccccc1-c1ccccc1)NC1CCN(CC(=O)N2CCOCC2)CC1, COc1ccc(OC)c(-c2cc(C(=O)Nc3cc(C)n(Cc4ccc(Cl)cc4)n3)no2)c1 > 76.9 µM, Cn1cc(C(=O)NC2CCCCCCC2)c(=O)c2cc(S(=O)(=O)N3CCCC3)ccc21 > 76.9 µM, Cc1cccc2cc(C(c3nnnn3Cc3ccccc3)N3CCN(c4ccccc4)CC3)c(=O)[nH]c12 (stereo not given) > 76.9 µM, COCCNC(=O)C(C)OC(=O)c1nsc(Cl)c1Cl (stereo not given) > 76.9 µM, CCCNC(=O)CSc1nnc(-c2ccco2)n1C > 76.9 µM, O=C(Nc1ccccc1)OCc1ccccn1 > 76.9 µM, COc1cccc(NC2=CC(=O)CC(C)(C)C2)c1 > 76.9 µM, COc1ccc(CNC(=O)CSc2ncn[nH]2)cc1 > 76.9 µM, CC1CCN(C(=O)COC(=O)c2cc3ccccc3cc2O)CC1 > 76.9 µM, CCC(=O)Nc1cc(=O)[nH]c2ncnn12 > 76.9 µM, Cc1cc(C)c2nc(-c3ccccn3)cc(C(=O)Nc3cc(C)on3)c2c1 > 76.9 µM, COc1ccc(C(=O)CSc2nnc(-c3ccco3)n2CC2CCCO2)cc1 (stereo not given) > 76.9 µM, O=C(O)CCN1C(=O)CC2(CCCCC2)C1=O > 76.9 µM, O=C(Nc1ccccc1C(=O)OCc1nnc(-c2ccccc2)o1)c1ccco1 > 76.9 µM, COCC(C)OC(=O)C(C#N)c1nc2ccccc2nc1N1CCN(Cc2ccccc2)CC1 (stereo not given) > 76.9 µM, N#Cc1ccc(CSc2nnc(-c3ccccn3)n2-c2ccc(Cl)cc2)cc1 > 76.9 µM, O=C(O)CC1SC(=Nc2ccccc2)N(c2ccccc2)C1=O (stereo not given) > 76.9 µM, CCn1c(SCC(N)=O)nnc1-c1ccc2[nH]c(C)c(C)c2c1 > 76.9 µM, Cc1ccc(S(=O)(=O)N2CCN(C(=O)CN3CCOCC3)C2C(C)C)cc1 (stereo not given) > 76.9 µM, O=C(NCc1ccco1)c1cc(-c2cccs2)on1 > 76.9 µM, COc1cc(C)nc(N2CCC(C(=O)NC3CCCCC3)CC2)n1 > 76.9 µM, CSc1nnc2c3cc(C)ccc3n(Cc3ccccc3)c2n1 > 76.9 µM, O=C(COC(=O)c1ccc(S(=O)(=O)N2CCOCC2)cc1)NC1CCCCCC1 > 76.9 µM, CCCCN(C(=O)NC(=O)Nc1ccccc1OC)S(C)(=O)=O > 76.9 µM, Cc1ccc(S(=O)(=O)N2CCC(C(=O)N[C@H](C(=O)NCc3ccco3)C(C)C)CC2)cc1 > 76.9 µM, CC(O)c1nc2ccccc2n1Cc1nnc(-c2ccc(Cl)cc2)o1 (stereo not given) > 76.9 µM, CN1C(=O)/C(=C2/C=Cc3ccccc3N2CCCS(=O)(=O)O)SC1=S > 76.9 µM, CN(C)c1ccc(C(c2nnnn2CCOC(=O)Nc2ccc(Cl)cc2)N2CCOCC2)cc1 (stereo not given) > 76.9 µM, CCOC(=O)c1cnc2sccn2c1=O > 76.9 µM, NC(=O)C1CCN(C(=O)c2ccc(C(F)(F)F)cc2)CC1 > 76.9 µM, Nn1c(COc2ccccc2)nc2ccccc2c1=O > 76.9 µM, CC(NC(=O)c1cn(C)c2ccc(S(=O)(=O)N3CCCC3)cc2c1=O)c1ccc2c(c1)OCCO2 (stereo not given) > 76.9 µM, CCOc1ccc(-n2c(=O)cc(N3CCN(c4ccc(F)cc4)CC3)[nH]c2=O)cc1 > 76.9 µM, Cc1ccc2cc(C(c3nnnn3C3CCCC3)N3CCN(c4ccccc4)CC3)c(=O)[nH]c2c1 (stereo not given), O=C(c1ccco1)N1CCN(c2ccc(S(=O)(=O)N3CCCC3)cc2)CC1 > 76.9 µM, O=C(c1nc2nc(-c3ccccc3)cc(C(F)(F)F)n2n1)N1CCOCC1 > 76.9 µM, O=C1CC(Sc2nnc(-c3ccccc3)o2)C(=O)N1c1ccccc1 (stereo not given) > 76.9 µM, COc1ccc(C(c2nnnn2Cc2ccccc2)N2CCN(C(=O)c3ccco3)CC2)cc1OC (stereo not given) > 76.9 µM, CCOC(=O)c1ccccc1NC(=O)Cn1cnc2c(cnn2C(C)(C)C)c1=O > 76.9 µM, O=S(=O)(c1cccc2cccnc12)N1CCc2ccccc21 > 76.9 µM, COc1ccc(NC(=O)C2C(=O)N(CCO)C3(C)CC2c2ccccc2O3)cc1 (stereo not given) > 76.9 µM, CC1CCCCC12NC(=O)N(CC(=O)NCCc1ccccn1)C2=O (stereo not given) > 76.9 µM, O=C(Nc1ccc2c(c1)OCO2)C(c1ccc(Cl)cc1)N1CCN(C(=O)c2ccco2)CC1 (stereo not given) > 76.9 µM, O=C1C2C3C=CC(C3)C2C(=O)N1CN(Cc1ccccc1)CN1C(=O)C2C3C=CC(C3)C2C1=O (stereo not given) > 76.9 µM, CCOCC(=O)Nc1cccc(OC)c1 > 76.9 µM, Cc1ccc2oc(=O)cc(CN3CCC(C)CC3)c2c1 > 76.9 µM, COCCN1Cc2cccc(C(=O)Nc3c(C)cc(C)cc3C)c2C1=O > 76.9 µM, CCCCC1CC1C(=O)Nc1ncc2c(n1)CC(C)(C)CC2=O (stereo not given) > 76.9 µM, COc1ccc(-c2ccc(OC)cc2C(=O)O)cc1 > 76.9 µM, Cc1cccc(OCC(=O)Nc2cc(C)ccc2O)c1 > 76.9 µM, CCOC(=O)c1c(=O)n(O)c2ccc(C)cc2[n+]1[O-] > 76.9 µM, Cn1c(=O)[nH]c(=O)c2c1nc(SCCN1CCCCC1)n2Cc1ccccc1 > 76.9 µM, CCC1(C)Cc2c(C#N)c(N)n(-c3ccccc3)c(=O)c2CO1 (stereo not given) > 76.9 µM, CCOCC(=O)Nc1cccc(NC(C)=O)c1 > 76.9 µM, COc1ccc2nc(C)c(C(=O)OCCN(C)C)cc2c1 > 76.9 µM, Cc1c(C(=O)NCCCN2CCOCC2)sc2nc(-c3ccc(F)cc3)cn12 > 76.9 µM, CCN(CC)S(=O)(=O)c1cc(C(=O)n2cccn2)c(Cl)cc1Cl > 76.9 µM, c1ccc(Cn2c(Nn3cnnc3)nc3ccccc32)cc1 > 76.9 µM, CC(=O)SCCC(=O)Nc1ccccc1 > 76.9 µM, Cc1cc(C)n(CCOc2ccc(Cl)cc2Cl)n1 > 76.9 µM, CCCc1nc2oc3c(NCCOCCO)ncnc3c2c2c1COC(C)(C)C2 > 76.9 µM, CCOC(=O)CC(=O)CSc1nc(-c2cccnc2)cc(C)c1C#N > 76.9 µM, CCc1c(C)nc2ncnn2c1N1CCC(C(=O)Nc2ccccc2)CC1 > 76.9 µM, COC(=O)c1cc2ccsc2n1CC(=O)Nc1ccc(N(C)C)cc1, COc1cc(C(=O)N2CCC(NC(=O)C(Cc3ccccc3)NC(C)=O)CC2)cc(OC)c1OC (stereo not given) > 76.9 µM, O=C(c1ccco1)N1CCN(S(=O)(=O)c2cccs2)CC1 > 76.9 µM, Cn1nnnc1SCC(=O)NCc1ccco1 > 76.9 µM, O=C(CSc1ccccc1)Nc1ccccc1N1CCOCC1 > 76.9 µM, CC1Cc2ccccc2N1C(=O)CCN1C(=O)C2C3C=CC(C3)C2C1=O (stereo not given) > 76.9 µM, Cc1ccc(C)c(N2CCN(C(=O)C3CCCN(S(=O)(=O)c4c(C)[nH]c(=O)[nH]c4=O)C3)CC2)c1 (stereo not given) > 76.9 µM, Cn1c(SCC(=O)O)nnc1C1CCCCC1 > 76.9 µM, CCOCCCNC(=O)c1ccc(CS(=O)(=O)Cc2ccc(C)cc2)o1 > 76.9 µM, COc1ccc(S(=O)(=O)N(C)CC(=O)N2CCC(C(N)=O)CC2)cc1Cl > 76.9 µM, CC(Oc1ccc(Cl)cc1Cl)C(=O)N(Cc1ccco1)C1CCS(=O)(=O)C1 (stereo not given) > 76.9 µM, COc1cccc(-c2nc(-c3ccc(NC(=O)Cc4ccccc4OC)cc3)no2)c1 > 76.9 µM, CCCCn1c(SCC(=O)OC)nc2c1c(=O)n(C)c(=O)n2C > 76.9 µM, COc1cc(-c2nn3c(-c4ccccc4)nnc3s2)cc(OC)c1OC > 76.9 µM, CCN(CC)C(=O)CSc1nc2ncccc2[nH]1 > 76.9 µM, O=C1C(C=NCc2ccccn2)=C(O)c2ccccc21 > 76.9 µM, CCn1c(COc2ccccc2OC)nnc1SCC#N > 76.9 µM, CCOC(=O)N1CCC(N(C(=O)Nc2ccc(CC)cc2)C(C)CC)CC1 (stereo not given) > 76.9 µM
